The record followed here is the RNAGym collection of RNA variant scans (doi:10.7554/elife.90254).

The source gives no read counts; variants with many changes may rest on few reads.

B1: LINE1-full (parent)
chain: UACGUAGGUGGUUUUCCCCUGAUAGUGCUAAGGGGGCCUGGAAGUUUGGACUGGGCAGAGCUCAACACAGCGUGGCAAAGUGGCUGUGGCUAGACUGCCUCUCUGGAUUCCUCGUCACUCAGCAGGGCAUCUCUGAGAGAAAUGCC

The series covers variants of B1. Briefly: self-cleavage, relative activity (ratio to wild type); higher = more cleavage; in vitro, sequencing; the parent is a self-cleaving ribozyme.
With UACGUAGGUGGUUUUCCCCUGAUAGUGCUAAGGGGGCCUGGAGGUUUGGACUGGGCAGUGCUCAACACAGCGCGGCAAAGUGGCUGUGGCUAGACUGCCUCUCUGGAUUCCUCGUCACUCAGCAGGGCAUCUCUGAGAGAAAUGCC, the self-cleavage stood at 1.35.
Take UACGUAGGUGGUUUUCCCCUGAUAGUGCUAAGGGGGCCUGGAGGUUUGGACUGGGCAGAGCUCAACACAGCGUGGCAGAGUGGCUGUGGCUGGACUGCCUCUCUGGAUUCCUCGUCACUCAGCAGGGCAUCUCUGGGGGAAAUGCC: the self-cleavage was 0.
Under UACGUAGGUGGUUUUCCCCUGAUAGUGCUAAGGGGGCCUGGAGGUUUGGACUGGGCUGAGCUCAACACAGCGUGGCAAAGUGGCUGUGGCUAGACUGCCUCUCUGGAUUCCUCGUCACUCAGCAGGGCAUCCCUGAGAGAAAUGCC stands 0.18; under UACGUAGGUGGUUUUCCCCUGAUAGUGCUAAGGGGGCCUGGACGUUUGGACUGGGCAGAGCUUAACACUGCGUGGCAAAGUGGCUGUGGCUAGACUGCCUCUCUGGAUUCCUCGUCACUCAGCAGGGCACCUCUGAGAGAAAUGCC, 0.06; under UACGUAGGUGGUUUUCCCCUGAUAGUGCUAAGGGGGCCUGGAGGUUUGGACUGGGCAGAGCUCAGCACAGCGUGGCAAAGUGGCUGUGGCUAGACUGCCUCUUUGGAUUCCUCGUCACUCAGCAGGGCAUCUCUGAGAGAAAUGCC, 0.05.
Turning to UACGUAGGUGGUUUUCCCCUGAUAGUGCUAAGGGGGCCUGGAGGUUUGGACUGGGCGGAGCCCUACACAGCGUGGCAAAGUGGCUGUGGCUAGACUGCCUCUCUGGGUUCCUCGUCACUCAGCAGGGCAUCUCUGGGAGAAAUGCC, the self-cleavage was determined as 0.
To UACGUAGGUGGUUUUCCCCUGAUAGUGCUAAGGGGGCCUGGAGGUUUGGACUGGGCAGAGCUCAACGCAGCGUGGCAAAGUGGCUGUGGCUAGACUGCCUCUCUGGAUUCCUCGUCACUCUGCAGGGCAUCUCUGAGAGAAAUGCC belongs 0.64; to UACGUAGGUGGUUUUCCCCUGAUAGUGCUAAGGGGGCCUGGAGGUUUGGACUGGGCGGAGCUCAACACAGCGUGGCAAAGUGGCUGUUGCUAGACUGCCUCUCUGGAUUCCUCGUCACUCAGCAGGGCAUCUCUGAGAGAAAUGCC, 0.1; to UACGUAGGUGGUUUUCCCCUGAUAGUGCUAAGGGGGCCUGGAGGUUUGGACUGGGCAGAGCUCGACACAGCGUGGCAAAGUGGCUGUGGCUAGACUGCCUCUCUGGAUUCCCUGUCACUCAGCAGGGUAUCUCUGAGAGAAAUGCC, 0.19.
In the case of UACGUAGGUGGUUUUCCCCUGAUAGUGCUAAGGGGGCCUGGAGGUUUGGACUGGGCAGUGCUCAACACAGCGUGGCAAAGUGGCUGUGGCUAGACUGCCUCUCUGGAUUCCUUGUCACUCAGCAGGGCAUCCCUGAGAGAAAUGCC, the self-cleavage was 0.83.
To UACGUAGGUGGUUUUCCCCUGAUAGUGCUAAGGGGGCCUGGACGUUUGGACUGGGCAGAGCUCAACACUGCGUGGCGAAGUGGCUGUGGCUGGACUGCCUCUCUGGAUUCCUCGUCACUCAGCAGGGCAUCUCUGAGAGAAAUGCC belongs 0.77; to UACGUAGGUGGUUUUCCCCUGAUAGUGCUAAGGGGGCCUGGACGUUUGGACUGGGCAGAACUCAACACGGCGUGGCAAAGCGGCUGUGGCUAGACUGCCUCUCUGGAUUCCUCGUCACUCAGCUGGGCAUCUCUGAGAGAAAUGCC, 0.
For UACGUAGGUGGUUUUCCCCUGAUAGUGCUAAGGGGGCCUGGAGGUUUGGACUGGGCAGAGCUCAACACGGCGUGGCAAAGUGGCUGUGGCUAGACAGCCUCUCUGGAUUCCUCGUCACUCAGCAGGGCAUCUCUGAGAGAAAUGCC, the self-cleavage was 0.07.
In the case of UACGUAGGUGGUUUUCCCCUGAUAGUGCUAAGGGGGCCUGGAGGUUUGGACUGGGCAGAGCUCAACACGGCGUGGCAAAGUGGCUGUGGCUAGACUGCCUCUCUGGAUUCCUCGUCACUCAGCAGGGCACCUCUGAGAGAAAUGCC, the self-cleavage is 0.
On to UACGUAGGUGGUUUUCCCCUGAUAGUGCUAAGGGGGCCUGGAGGUUUGGACUGGGCAGAGCUCAACACUGCGUGGCAAAGUGGCUGUGGCUAGACUGCCUCUCUGGAUUCCUCGUCACUCAGCAGGGCAUCUCAGAGAGAAAUGCC, for which the self-cleavage was found to be 0.13.
As for UACGUAGGUGGUUUUCCCCUGAUAGUGCUAAGGGGGCCUGGAGGUUUGGACUGGGCAGAGCUCAACACAGCGUGGCGAAGUGGCUGUGGCUAGACUGCCUCUCUGGAUUCCUCGUCACUCAGCAGGGCAUCUCUGAGAGAGACGCC, the self-cleavage amounted to 1.34.
Regarding UACGUAGGUGGUUUUCCCCUGAUAGUGCUAAGGGGGCCUGGAGGUUUGGGCUGGGCAGAGCUCAACACAGCGUGGCAAAGUGGCUGUAGCUAGACUGCCUCUCUGGGUUCCUCGUCACUCAGCAGGGCAUCUCUGAGAGAAAUGCC, the self-cleavage came to 0.
Take UACGUAGGUGGUUUUCCCCUGAUAGUGCUAAGGGGGCCUGGAGGUUUGGACUGGGCAGAGCUCAACACAGCGUGGCUAAGUGGCUGUGGCUAGACUGCCUCUCUGGAUUCCUCGCCACUCAGCAGGGCAUCUCUGAGAGAAAUGCC: the self-cleavage is 1.48.
Under UACGUAGGUGGUUUUCCCCUGAUAGUGCUAAGGGGGCCUGGAGGUUUGGACUGGGCUGAGCUCUACACAGCGUGGCAAAGUGGCUGUGGCUAGACUGCCUCUCUGGAUUCCUCGUCACUCAGCAGGGCAUCUCUGAGAGAAAUGCC stands 0.06.
As for UACGUAGGUGGUUUUCCCCUGAUAGUGCUAAGGGGGCCUGGAGGUUUGGACUGGGCAGAGCUCAACACUGCGUGGCAAAGUGGCUGUGGCUAGACUGCCUCUCUGGAUUCCUCGUCACUCAGCAGGGCAUCUCUGAGAGAGAUGCC, the self-cleavage was 0.09.
As for UACGUAGGUGGUUUUCCCCUGAUAGUGCUAAGGGGGCCUGGAGGUUUGGACUGGGCAGAGCUCAACGCAGCGUGGCAAUGUGGCUGAGGCUAGACUGCCUCUCUGGAUUCCUCGUCACUCAGCAGGGCAUCUCUGAGAGAAAUGCC, the self-cleavage was found to be 0.
As to UACGUAGGUGGUUUUCCCCUGAUAGUGCUAAGGGGGCCUGGAGGUUUGGACUGGGCAGAGCUCAACACAGCGUGGCAGAGUGGCUGUGGCUAGACUGCCUCUCUGGAUUCCUCGUCACUCAGCAGGGCAUCUCUGAGGGAAGUGCC, the self-cleavage came out at 1.53.
To UACGUAGGUGGUUUUCCCCUGAUAGUGCUAAGGGGGCCUGGAGGUUUGGACUGGGCAGGGCUCUACACAGCGUGGCAAAGUGGCUGUGGCUAGACUGCCUCUCUGGAUUCCUCGUCACUCAGCAGGGCAUCUCUGGGAGAAAUGCC belongs 0.12; to UACGUAGGUGGUUUUCCCCUGAUAGUGCUAAGGGGGCCUGGAGGUUUGGACUGGGCAGAGCUCAACGCAGCGUGGCAAAGUGGCUGUGGCUAGACUGCCUCUCUGGAUUCCUCGUCUCUCAGCAGGGCAUCUCUGAGGGAAAUGCC, 0.63; to UACGUAGGUGGUUUUCCCCUGAUAGUGCUAAGGGGGCCUGGAGGUUUGGACUGGGCAGAGCUCAACACAGCGUGGCAUAGUGGCUGUGGCUAGACUGCCUCUCUGGAUUCCUCGUCACUCAGCAGGGCAUCCCUGAGAGAAAUGCC, 1.34.
In the case of UACGUAGGUGGUUUUCCCCUGAUAGUGCUAAGGGGGCCUGGAGGUUUGGACUGGGCAGAGCUCAUCACAGCGUGGCAAAGUGGCUGUGGCUAGACUGCCUCUCUGGAUUCCUCGUCACUCAGCAGGGCAUCUCUGGGAGAAAUGCC, the self-cleavage is 0.25.
Under UACGUAGGUGGUUUUCCCCUGAUAGUGCUAAGGGGGCCUGGAGGUUUGGACUGGGCAGAGCUCUACACAGCGUGGCAAAGUGGCUGUGGCUAGACUGUCCCUCUGGAUUCCUCGUCACUCAGCAGGGCAUCUCUGAGAGUAAUGCC stands 0.57; under UACGUAGGUGGUUUUCCCCUGAUAGUGCUAAGGGGGCCUGGAGGUUUGGACUGGGCAGAGCUCGACACAGCGUGGCAAAGUGGCUGUGGCUAGACUGCCUCUCUGGAUUCCUCGUCACACAGCAGGGCAUCUCUGAGAGAGAUGCC, 0.27; under UACGUAGGUGGUUUUCCCCUGAUAGUGCUAAGGGGGCCUGGAGGUUUGGGCGGGGCAGAGCUCAACACAGCGUGGCAAAGUGGCUGUGGCUAGACAGCCUCUCUGGAUUCCUCGUCACUCAGCAGGGCAUCUCUGAGAGAAAUGCC, 0.
As for UACGUAGGUGGUUUUCCCCUGAUAGUGCUAAGGGGGCCUGGAGGUUUGGACUGGGCGGAGCUCAACACAGCGUGGCAAAGUGGCUGUGGCUAGACUGCCUCUCUGGAUUCCUCGUCACUCAGCAGGGCAUCUCUGAGAGGAAUGCC, the self-cleavage amounted to 0.84.
Under UACGUAGGUGGUUUUCCCCUGAUAGUGCUAAGGGGGCCUGGAGGUUUGGACUGGGCAGAGCUCACCACAGCGUGGCAAAGAGGCUGUGGCUAGACUGCCUCUCUGGAUUCCUCGUCACUCAGCAGGGCAUCUCUGAGAGAGAUGCC stands 0.04; under UACGUAGGUGGUUUUCCCCUGAUAGUGCUAAGGGGGCCUGGAGGUUUGGACUGGGCAGAGCUCAGCACAGCGUGGCAAAGUGGCUGUGGCUAGACUGCCUCUCUGGAUUCCUCGUCACUCAGCAGGGCAUCUCUGAGGGAAAUGCC, 0.12; under UACGUAGGUGGUUUUCCCCUGAUAGUGCUAAGGGGGCCUGGAGGUUUGGACUGGGCAGAGCUCAGCACAGCGUGGCAAAGUGGCUGUGGCUAGGCUGCCUCUCUGGAUUCCUCGUCACUCAGCUGGGCUUCUCUGAGAGAAAUGCC, 0.
For UACGUAGGUGGUUUUCCCCUGAUAGUGCUAAGGGGGCCUGGAGGUUUGGACUGGGCAGAGCUCAACGCAGCGUGGCAAAGUGGCUGUGGCUAGACUGCCUCUCUGGAUUCCUCGUCACUCAGCUGGGCAUCUCUGAGAGAAAUGCC, the self-cleavage turned out to be 0.15.
Take UACGUAGGUGGUUUUCCCCUGAUAGUGCUAAGGGGGCCUGGAGGUUUGGACUGGGCAGGGCUCAACACAGCGUGGCAAAGUAGCUGUGGCUAGACUGCCUCUCUGGAUUCCUCGUCACUCAGCAGGGCAUCUCUGAGAGAAGUGCC: the self-cleavage was determined as 0.08.
As to UACGUAGGUGGUUUUCCCCUGAUAGUGCUAAGGGGGCCUGGAGGUUUGGACUGGGCAGAGCUCAACACAGCGUGGCAAGGUGGCUGUGGCUAGACUGCCUCUUUGGAUUCCUCGUCACUCAGCAGGGCAUCUCUGAGAGAAAUGCC, the self-cleavage came out at 1.07.
Consider UACGUAGGUGGUUUUCCCCUGAUAGUGCUAAGGGGGCCUGGAGGUUUGGACUGGGCAGAGCUCAACACAGCGUGGCAUAGUGGCUGUGGCUGGACUGCCUCUCUGGAUUCCUCGUCACUCAGCAGGGCAUCCUUGAGAGAAAUGCC, for which the self-cleavage was determined as 0.19.
In the case of UACGUAGGUGGUUUUCCCCUGAUAGUGCUAAGGGGGCCUGGAGGUUUGGACUGGGCAGAGCUCAUCACAGCGUGGCAAAGUGGCUGUGGCUAGACUGCCUCUCUGGACUCCUCGUCACUCAGCAGGGCACCUCUGAGAGAAGUGCC, the self-cleavage was 0.
Under UACGUAGGUGGUUUUCCCCUGAUAGUGCUAAGGGGGCCUGGAGGUUUGGACUGGGCAGAGCUCUACACAGCGUGGCAAAGUGGCCGUGGCUAGACUGCCUCUCUGGAUUCCUAGUCACUCAGCAGGGCAUCUCUGAGAGAAAUGCC stands 0.09.
